{
  "source": "paper PMC4336329",
  "about": "(PLoS ONE, 2015)",
  "note": "Screen size: about 310,000 compounds; about 2,200 (0.71%) showed an effect of 50% or more. The effect is printed as a negative number. This is one part of the list.",
  "data": [
    {"target": "human ether-à-go-go-related gene (hERG) potassium channel (human, UniProt Q12809)", "sequence (Q12809 whole entry, looked up)": "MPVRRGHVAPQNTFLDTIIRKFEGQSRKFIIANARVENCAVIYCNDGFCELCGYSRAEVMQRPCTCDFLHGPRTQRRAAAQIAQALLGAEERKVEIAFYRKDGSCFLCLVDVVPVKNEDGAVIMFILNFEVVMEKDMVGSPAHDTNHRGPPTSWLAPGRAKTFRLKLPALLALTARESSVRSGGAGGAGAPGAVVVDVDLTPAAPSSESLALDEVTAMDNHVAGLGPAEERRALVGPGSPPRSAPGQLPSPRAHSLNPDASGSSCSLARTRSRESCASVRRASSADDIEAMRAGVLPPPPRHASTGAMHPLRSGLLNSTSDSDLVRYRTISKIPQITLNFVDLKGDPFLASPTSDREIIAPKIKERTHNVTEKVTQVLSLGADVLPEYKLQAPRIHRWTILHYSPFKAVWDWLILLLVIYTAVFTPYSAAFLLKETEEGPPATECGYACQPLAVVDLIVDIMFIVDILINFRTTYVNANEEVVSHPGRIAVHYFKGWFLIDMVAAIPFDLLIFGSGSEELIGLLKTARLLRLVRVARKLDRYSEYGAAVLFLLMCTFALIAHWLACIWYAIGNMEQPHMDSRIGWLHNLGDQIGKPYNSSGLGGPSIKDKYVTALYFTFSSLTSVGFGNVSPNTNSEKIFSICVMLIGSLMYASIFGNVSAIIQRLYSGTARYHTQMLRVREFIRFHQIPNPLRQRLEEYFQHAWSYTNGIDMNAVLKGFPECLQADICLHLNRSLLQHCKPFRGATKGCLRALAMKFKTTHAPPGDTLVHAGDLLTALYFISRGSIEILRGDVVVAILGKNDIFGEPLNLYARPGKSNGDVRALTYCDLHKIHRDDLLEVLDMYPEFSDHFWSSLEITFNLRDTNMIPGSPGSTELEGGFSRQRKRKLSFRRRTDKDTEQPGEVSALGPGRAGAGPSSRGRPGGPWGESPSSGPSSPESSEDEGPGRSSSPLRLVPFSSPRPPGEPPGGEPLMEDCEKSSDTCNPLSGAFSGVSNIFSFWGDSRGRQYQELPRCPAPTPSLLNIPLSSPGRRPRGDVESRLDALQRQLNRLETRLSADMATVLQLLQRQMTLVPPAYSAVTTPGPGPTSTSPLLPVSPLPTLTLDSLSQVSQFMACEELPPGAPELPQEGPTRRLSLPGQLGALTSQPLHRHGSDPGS", "experiment": "primary screen, population patch clamp on CHO cells stably expressing hERG", "units": {"hERG current change (%, negative = inhibition) at 1uM": "%"}, "values": [
      {"smiles": "COc1cccc(C=Nc2ccccc2C(=O)Nc2ccccc2)c1O", "hERG current change (%, negative = inhibition) at 1uM": 4.5},
      {"smiles": "CCN1CCN(C(c2cc(OC)c(OC)c(OC)c2)c2nnnn2C(C)C)CC1.Cl", "note": "(stereo not drawn)", "hERG current change (%, negative = inhibition) at 1uM": 9.19},
      {"smiles": "COc1ccccc1N1CCN(S(=O)(=O)c2ccc3c(c2)NC(=O)CS3)CC1", "hERG current change (%, negative = inhibition) at 1uM": 9.4},
      {"smiles": "O=C(Nc1ccc(-c2ccccc2)cc1)c1ccc2c(c1)S(=O)(=O)c1ccccc1C2=O", "hERG current change (%, negative = inhibition) at 1uM": 6.62},
      {"smiles": "C=C(C)CN(CC)C(=O)CSc1ccc(S(=O)(=O)N2CCN(Cc3ccccc3)CC2)cn1", "hERG current change (%, negative = inhibition) at 1uM": -8.52},
      {"smiles": "CC(C)(C)NC(=O)Cn1nnc(-c2cccs2)n1", "hERG current change (%, negative = inhibition) at 1uM": 4.77},
      {"smiles": "O=c1c2c(ncn1Cc1ccccc1)nc1n2CCC1", "hERG current change (%, negative = inhibition) at 1uM": 8.46},
      {"smiles": "Nc1ccc(Nc2nc(-c3cc4ccccc4oc3=O)cs2)cc1", "hERG current change (%, negative = inhibition) at 1uM": 6.2},
      {"smiles": "CCOC(=O)c1ccc(-n2c(CN(CC)CC)nc3ccc([N+](=O)[O-])cc3c2=O)cc1", "hERG current change (%, negative = inhibition) at 1uM": 9.72},
      {"smiles": "CCOC(=O)C1CCN(C(=O)COc2ccc(S(=O)(=O)NC(C)C)cc2Cl)CC1", "hERG current change (%, negative = inhibition) at 1uM": -6.69},
      {"smiles": "Cc1ccc(CNC(=O)C(=O)NCCC2CCCCN2S(=O)(=O)c2ccc(C)cc2)cc1", "note": "(stereo not drawn)", "hERG current change (%, negative = inhibition) at 1uM": 4.51},
      {"smiles": "O=C(NC1CCCCC1)N1CCN(C2CCCCC2)CC1", "hERG current change (%, negative = inhibition) at 1uM": 5.11},
      {"smiles": "CCCCCCCCCCCCN1C(=O)CSC1c1cccnc1", "note": "(stereo not drawn)", "hERG current change (%, negative = inhibition) at 1uM": 14.5},
      {"smiles": "C=CCNC(=O)CC(=O)N/N=C/c1cccc(C)c1", "hERG current change (%, negative = inhibition) at 1uM": 9.72},
      {"smiles": "O=C(CSc1nncs1)Nc1ccc(Cl)cc1C(F)(F)F", "hERG current change (%, negative = inhibition) at 1uM": 14.3},
      {"smiles": "COc1ccc(Br)cc1CNCCc1cccc(Cl)c1.O=C(O)C(=O)O", "hERG current change (%, negative = inhibition) at 1uM": 0.403},
      {"smiles": "O=C(c1ccc2c(c1)C(=O)N(Cc1ccco1)C2O)N1CCOCC1", "note": "(stereo not drawn)", "hERG current change (%, negative = inhibition) at 1uM": 16.8},
      {"smiles": "N#Cc1ccccc1S(=O)(=O)N1CCN(C(=O)c2cn(-c3ccccc3)nc2-c2cccnc2)CC1", "hERG current change (%, negative = inhibition) at 1uM": -27.7},
      {"smiles": "CCOC(=O)C1=C2SCC(=O)N2C(N)=C(C#N)C1", "hERG current change (%, negative = inhibition) at 1uM": 1.92},
      {"smiles": "CC(=O)COc1ccc2c(-c3ccccc3)cc(=O)oc2c1C", "hERG current change (%, negative = inhibition) at 1uM": 8.18},
      {"smiles": "O=C1c2ccccc2C(=O)N1Cc1cc(-c2ccc(Cl)cc2)no1", "hERG current change (%, negative = inhibition) at 1uM": 12.3},
      {"smiles": "Cc1ccc(OCCn2cccn2)c(C)c1", "hERG current change (%, negative = inhibition) at 1uM": 6.35},
      {"smiles": "Cc1ccc(C)c(NC(=O)CN(C)C(=O)c2oc3c(Cl)cccc3c2C)c1", "hERG current change (%, negative = inhibition) at 1uM": -4.63},
      {"smiles": "Cl.Fc1ccc(Cn2nnnc2C(c2ccc(Cl)cc2)N2CCSCC2)cc1", "note": "(stereo not drawn)", "hERG current change (%, negative = inhibition) at 1uM": 12.5},
      {"smiles": "CC1Cc2ccccc2N1S(=O)(=O)c1cccc(C(=O)N2CC(=O)Nc3ccccc32)c1", "note": "(stereo not drawn)", "hERG current change (%, negative = inhibition) at 1uM": -5.32},
      {"smiles": "CCOc1ccc(C(C)=O)cc1COC(=O)CCc1cc(OC)c(OC)c(OC)c1", "hERG current change (%, negative = inhibition) at 1uM": 10.5},
      {"smiles": "COc1ccccc1N(CC(=O)NCCSc1ccccc1)S(C)(=O)=O", "hERG current change (%, negative = inhibition) at 1uM": 1.1},
      {"smiles": "Cc1ccc(C(=O)NCC(=O)OCC(=O)c2ccc(Cl)s2)cc1", "hERG current change (%, negative = inhibition) at 1uM": 8.96},
      {"smiles": "Cc1ccc(OCc2cc(C(=O)N3CCc4sccc4C3)no2)cc1C", "hERG current change (%, negative = inhibition) at 1uM": 10.2},
      {"smiles": "CCc1ccc(Nc2nnc(SCC(=O)NC(=O)c3cccn3C)s2)cc1", "hERG current change (%, negative = inhibition) at 1uM": 10.2},
      {"smiles": "CN(C)c1ccc(/C=C(/NC(=O)c2ccccc2)C(=O)NCCN2CCOCC2)cc1", "hERG current change (%, negative = inhibition) at 1uM": 16.1},
      {"smiles": "COc1cc(Cl)cc(CN2CCC(CCC(=O)NC3CC3)CC2)c1OC", "hERG current change (%, negative = inhibition) at 1uM": 8.95},
      {"smiles": "NC(=O)NC(=O)CN1C(=O)NC2(CCOc3ccccc32)C1=O", "note": "(stereo not drawn)", "hERG current change (%, negative = inhibition) at 1uM": 6.17},
      {"smiles": "Cc1ccc(C)c(S(=O)(=O)N2CCN(C(=O)c3cccnc3)CC2)c1", "hERG current change (%, negative = inhibition) at 1uM": 7.12},
      {"smiles": "COc1cc(Cl)ccc1OCc1cc(C(=O)N(C)C2CCOC2)no1", "note": "(stereo not drawn)", "hERG current change (%, negative = inhibition) at 1uM": 13.2},
      {"smiles": "CCCS(=O)(=O)c1ccc(COC(=O)c2cccc(NC(=O)C(C)C)c2)cc1", "hERG current change (%, negative = inhibition) at 1uM": 3.65},
      {"smiles": "Cc1c(/C=N/N=C2\\CCC3C4CCc5cc(O)ccc5C4CCC23C)cnn1C", "note": "(stereo not drawn)", "hERG current change (%, negative = inhibition) at 1uM": 4.56},
      {"smiles": "C=CCNC(=O)c1cc(-c2ccc3c(c2)OCO3)on1", "hERG current change (%, negative = inhibition) at 1uM": 10.5},
      {"smiles": "CCOC(=O)N1CCN(CCC(=O)c2ccc(OC)cc2)CC1.Cl", "hERG current change (%, negative = inhibition) at 1uM": -2.21},
      {"smiles": "CCSc1nnc(Cc2cc(=O)[nH]c(=O)[nH]2)n1-c1cccc(C)c1", "hERG current change (%, negative = inhibition) at 1uM": 7.26},
      {"smiles": "CC(=O)c1cccc(S(=O)(=O)NCCC(=O)NC2CCCCCC2)c1", "hERG current change (%, negative = inhibition) at 1uM": 8.68},
      {"smiles": "CC(C)c1ccc(N=Nc2c(O)[nH]c(=O)[nH]c2=O)cc1", "hERG current change (%, negative = inhibition) at 1uM": 11.2},
      {"smiles": "CN1CCN(C(=O)CCc2ncc(C(F)(F)F)cc2Cl)CC1", "hERG current change (%, negative = inhibition) at 1uM": 12},
      {"smiles": "O=C(CN(Cc1ccccc1)C(=O)c1cc2c(s1)CCC2)NCc1cccs1", "hERG current change (%, negative = inhibition) at 1uM": 5.46},
      {"smiles": "CCCCN1C(N)=NC[C@H]1Cc1ccc(O)cc1", "hERG current change (%, negative = inhibition) at 1uM": 14.3},
      {"smiles": "COc1cc2c(cc1NC(=O)/C=C/c1ccccc1)oc1ccccc12", "hERG current change (%, negative = inhibition) at 1uM": 14.4},
      {"smiles": "CC(/C=C1\\SC(=S)N(CCC(=O)Nc2ccc(O)cc2)C1=O)=C\\c1ccccc1", "hERG current change (%, negative = inhibition) at 1uM": 17},
      {"smiles": "COCCNc1cc(C)c(C#N)c2nc3ccccc3n12", "hERG current change (%, negative = inhibition) at 1uM": -0.748},
      {"smiles": "O=C(Nc1nnc(-c2ccccn2)o1)c1cccc(Br)c1", "hERG current change (%, negative = inhibition) at 1uM": 9.48},
      {"smiles": "COc1ccccc1Nc1nc(N2CCOCC2)nc(N2CCOCC2)n1.Cl", "hERG current change (%, negative = inhibition) at 1uM": 13.1},
      {"smiles": "COc1cc(C(=O)OCC(=O)N(CC(C)C)C2CCS(=O)(=O)C2)cc(OC)c1C", "note": "(stereo not drawn)", "hERG current change (%, negative = inhibition) at 1uM": -0.238},
      {"smiles": "Fc1ccc(NC(=S)Nc2cccnc2)cc1Cl", "hERG current change (%, negative = inhibition) at 1uM": 5.8},
      {"smiles": "O=S(=O)(c1cccc(NC(=S)N2CCN(c3ccccc3)CC2)c1)C(F)F", "hERG current change (%, negative = inhibition) at 1uM": 4},
      {"smiles": "O=C(Oc1ccc([N+](=O)[O-])cc1)N1CCC(N2CCCCC2)CC1", "hERG current change (%, negative = inhibition) at 1uM": -38.5},
      {"smiles": "O=C1/C(=C/c2ccc(F)cc2)SC(=S)N1CC(=O)N1CCCCC1c1cccnc1", "note": "(stereo not drawn)", "hERG current change (%, negative = inhibition) at 1uM": 12.6},
      {"smiles": "CCN(Cc1ccccc1)S(=O)(=O)c1cn(C)cn1", "hERG current change (%, negative = inhibition) at 1uM": 11.5},
      {"smiles": "CC(c1ccccc1)n1cc(C(=O)NCc2ccncc2)nn1", "note": "(stereo not drawn)", "hERG current change (%, negative = inhibition) at 1uM": 2.06}
    ]}
  ]
}
